Source: US20140030341A1, “POLYMERS AND METHODS FOR THE TREATMENT OF PAIN” (RUTGERS, THE STATE UNIVERSITY OF NEW JERSEY, priority 2011, published 2014)

System: Adult male C57Bl/6J mice
Conditions: for time point by which analgesic effect was absent / diminished: i.p., free morphine 10 mg/kg, 3 at 50 mg/kg

## CN1CC[C@]23c4c5ccc(OC(=O)CCCC(=O)O)c4O[C@H]2[C@@H](OC(=O)CCCC(=O)O)C=C[C@H]3[C@H]1C5 [Diacid 3]
  time point by which analgesic effect was absent / diminished: ≤ 8 h

## CN1CC[C@]23c4c5ccc(O)c4O[C@H]2[C@@H](O)C=C[C@H]3[C@H]1C5 [morphine]
Free morphine 10 mg/kg i.p.
  time of peak analgesia post-administration: 30 min
  time point by which analgesic effect was absent / diminished: ≤ 4 h
